# Measurements from patent publication US20090325873A1, “HUMAN GLP-1 MIMETIBODIES, COMPOSITIONS, METHODS AND USES” (CENTOCOR, INC., priority 2006, published 2009).
# How the values were obtained:
# control HEK293 cells = assay: FACS binding assay, control HEK293 cells; details: 20 nM, flow cytometry
# Protocol: (§1) The activity of a GLP-1 mimetibody was tested in an in vitro FACS binding assay. To determine whether the GLP-1 MMB binds the GLP-1R, HEK293 cells (1×10^6 cells) over-expressing the GLP-1R were incubated with GLP-1 MMB of SEQ ID NO: 69 (20 nM) for 2 hours at 4° C. The cells were washed, and a fluorescently labeled secondary detection antibody (1 μg/mL goat anti-human IgG, Fc gamma specific) was added for 30 minutes at 4° C. The fluorescence intensity of the cells was monitored via flow cytometry.
# DPP-IV = biological target: T1, DPP-IV (Homo sapiens, UniProt P27487); assay: DPP-IV cleavage assay; type: in vitro ADME; details: 1.2 nM, DPP-IV 1 μg/mL, room temperature, 0-40 minutes, GLP-1 Active ELISA
# T1 construct: purchased R&D Systems
# T1 sequence (P27487 whole entry, species assumed): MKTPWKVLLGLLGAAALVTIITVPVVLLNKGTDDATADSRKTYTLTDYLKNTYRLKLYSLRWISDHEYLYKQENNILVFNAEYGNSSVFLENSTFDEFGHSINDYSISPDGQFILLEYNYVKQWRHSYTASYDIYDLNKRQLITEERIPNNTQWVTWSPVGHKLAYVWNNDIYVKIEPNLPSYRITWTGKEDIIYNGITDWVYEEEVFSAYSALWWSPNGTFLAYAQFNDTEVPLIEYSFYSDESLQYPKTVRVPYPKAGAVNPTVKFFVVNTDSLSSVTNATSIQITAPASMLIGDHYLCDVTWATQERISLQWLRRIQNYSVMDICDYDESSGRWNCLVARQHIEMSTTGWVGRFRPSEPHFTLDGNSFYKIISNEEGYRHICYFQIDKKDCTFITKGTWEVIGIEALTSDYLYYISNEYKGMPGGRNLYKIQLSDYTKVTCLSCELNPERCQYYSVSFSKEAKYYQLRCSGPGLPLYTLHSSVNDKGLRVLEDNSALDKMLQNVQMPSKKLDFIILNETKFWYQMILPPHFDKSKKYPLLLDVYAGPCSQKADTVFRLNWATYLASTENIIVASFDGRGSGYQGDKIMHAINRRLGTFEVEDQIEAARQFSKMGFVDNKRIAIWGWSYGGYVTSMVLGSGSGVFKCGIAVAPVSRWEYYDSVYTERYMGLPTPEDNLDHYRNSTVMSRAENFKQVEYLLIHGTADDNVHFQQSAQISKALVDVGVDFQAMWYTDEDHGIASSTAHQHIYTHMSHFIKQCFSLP
# Protocol: Since GLP-1 is rapidly inactivated by DPP-IV, an in vitro assay was established to quantitate intact (i.e. uncleaved) GLP-1 MMB of SEQ ID NO: 69. Briefly, GLP-1 MMB of SEQ ID NO: 69 or peptide (1.2 nM) was incubated at room temperature with DPP-IV (1 μg/mL, R&D Systems). After various times (0, 5, 10, 15, 20, 30, 40 minutes), a DPP-IV inhibitor (100 μM, Linco) was added to quench the reaction. The amount of intact GLP-1 MMB of SEQ ID NO: 69 or peptide was measured using the GLP-1 Active ELISA (Linco) and the GLP-1 MMB of SEQ ID NO: 69 or peptides for the respective standard curves.
# GLP-1R = biological target: T2, GLP-1R (Homo sapiens, UniProt P43220); assay: FACS binding assay, HEK293 cells over-expressing the GLP-1R; details: 20 nM, 2 hours at 4° C., flow cytometry
# T2 construct: expressed in transfected cells; host or cells: HEK293
# T2 sequence (P43220 24-463, species assumed): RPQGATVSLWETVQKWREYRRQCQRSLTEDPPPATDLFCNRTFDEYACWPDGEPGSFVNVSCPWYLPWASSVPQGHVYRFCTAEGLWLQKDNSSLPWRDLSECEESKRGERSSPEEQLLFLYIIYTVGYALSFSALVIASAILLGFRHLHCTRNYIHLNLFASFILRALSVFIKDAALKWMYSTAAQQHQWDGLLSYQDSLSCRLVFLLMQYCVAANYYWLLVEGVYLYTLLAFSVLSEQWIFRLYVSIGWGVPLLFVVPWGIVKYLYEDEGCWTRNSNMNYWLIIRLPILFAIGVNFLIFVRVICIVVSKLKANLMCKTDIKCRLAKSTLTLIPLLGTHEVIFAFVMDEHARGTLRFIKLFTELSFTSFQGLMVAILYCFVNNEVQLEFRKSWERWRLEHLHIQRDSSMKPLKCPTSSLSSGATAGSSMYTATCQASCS
# Protocol: as §1
molecule,measurement,setting,value
"GLP-1 MMB of SEQ ID NO: 69: wild-type GLP-1 sequence incorporated into a mimetibody scaffold (protein, listed as Homo sapiens) HAEGTFTSDVSSYLEGQAAKEFIAWLVKGRGGGSGGGSGTLVTVSS[human IgG4 Fc with S228P F234A L235A (EU numbers) omitted]",binding to control HEK293 cells,control HEK293 cells,does not bind
same,resistance to cleavage by DPP-IV,DPP-IV,significantly more resistant to cleavage by DPP-IV
same,binding to HEK293 cells over-expressing the GLP-1R,GLP-1R,binds
